This assay deals with SKOV-3m cells. The conditions noted are these: for mean survival: after start of treatment.
Setting [1] is: at the end of the follow-up, mean ± SEM.
The mark [2] stands for this setting: study groups at the end of the follow-up, mean ± SEM.

3 molecules from patent publication US20140057851A1, “Anti-Angiogenic Gene Therapy With Soluble VEGF Receptors -1, -2 and -3 Together With Paclitaxel Prolongs Survival Of Mice With Human Ovarian Carcinoma” (WKD Holding Oy, priority 2012, published 2014) can be followed below.

Like-named read-outs stand apart in the source and are kept apart here.

With `N.N.O=C([O-])C1(C(=O)[O-])CCC1.[Pt+2]` [Carboplatin], where the note is “mean ± SEM”, the mean survival worked out at 13 ± 1 days. In addition, the “Tumor weight (mean, g)” value under setting [1] is 2.0 ± 0.3 g. Besides, under setting [2], the “MRI volume (mean, mm^3)” value was determined as 1174.6 ± 279 mm^3.

For the setting “mean ± SEM”, `CC(=O)O[C@H]1C(=O)[C@@]2(C)[C@H]([C@H](OC(=O)c3ccccc3)[C@]3(O)C[C@H](OC(=O)[C@H](O)[C@@H](NC(=O)c4ccccc4)c4ccccc4)C(C)=C1C3(C)C)[C@]1(OC(C)=O)CO[C@@H]1C[C@@H]2O` [Paclitaxel] gave a mean survival of 15 ± 1 days. Further, for the setting “mouse, in vivo”, the “MRI volume (mean, mm^3)” value was found to be 1333.5 ± 356 mm^3 and the “Tumor weight (mean, g)” value was 3.1 ± 0.6 g.

As for Bevacizumab, under setting [1], the “Tumor weight (mean, g)” value was determined as 2.7 ± 0.4 g. Also, for the setting “result in words”, the “effect on mean tumor weight” value is given as “did not have any significant effect”, the effect on survival entry is “did not have any significant effect” and the “effect on tumor volume” value was “did not have any significant effect”. Also, the “MRI volume (mean, mm^3)” value under setting [2] is on record as 1342.1 ± 184 mm^3.
